# Data from the supplement of paper PMC8728848.
# The other results are listed elsewhere or left out.
# B1: Epa1-NP-mutant-E227A (Candida glabrata), Q6VBJ0 (protein)
# chain: MILNPALFLNKCVCIYTTLILLLLTNGGYATSSNDISLASKDPTTFPLGCSPDITTPKKGLSMELYSYDFRKKGSYPCWDAAYLDPNYPRTGYKSHRLLAKVDGVTGNINFYYHATKGCTPQLGHLPASYNYPKPLTMTNFTMLLYGYFRPKVTGFHTFTISADDLLFVNFGAGNAFDCCRRDSSADHFGNYQAYAIWGSKTAKDELTVHLDAGVYYPIRLFYNNRAYDGALSFTFKTESNENTVSDFSEYFFSLDDTEEGCPGLISYDSSCASVKTSKIIGIDYHTETPNENLVPITKTIYHLGIPCTGTTTTPLCGSGFYDPLANKCVTINTSSTSSVTKTTSHTTSKEVSFHSSISSQKTLIPKSIPSPYGPIKSQSIPTEMETSSEISSSEYAFSDVISTPSHSPYTKKHSSLNSSSYTSTVIHSLTSYSISQGIFSTSLSEQNITSKSSTDKFSTATSMSNNITQSSIIISQFSTNNENYTTTSMHTSSDKISTETLNNSISTTTSILFSNSSTILKNNTTIISSDKDTHYHPVNPTIVCSTNKTEIICASITQPSISNSNNHWSSSVLKFNSTTVRSTLPSSAGSNETSINVPFSSSTESNTSTSSTSTSNSKMVRSTLPSSAGSNETSISVPFSSSTESNTSTSSTSTSNSKMVRSTLPSSAGSNETSINVPFSSSTESNTSTSSTSTSNSKTVRSTPFSSAGIIMTSLSQRNNKSASSYASSNSKCYNTADSCRKVHSTPSYLLTSSYTSEGVDYDCSLVSTKLKINDTNCVNNKHTTKSCLKTSVTTTIPTLEIKTARKSSSNTIGLHSYPTSSPNKSISSAPIIGYISSFKTIKTASPSYQTSDLTTITTITSLNNPGSTAVENTHESNDKSRKTSSNDISSKHSVIKETKDAVESSNKSHQTNTLKCSSIIIASSSHNSYESLGGTTLTLTLSKVYSPQNNDTLPFLEISEVNPSRTVLPESSKMMQYLTSTEERNKTARNTIATNIVSISTFHFEGEGNAIRMGYTQLLLMLIGIIVMNIGT
# What was measured:
# Assay in all cases: glycan array binding signal (z-score within array); higher = stronger binding
# Details in all cases: glycan notation: IUPAC condensed, linker removed; mutation: E227A
# [1] = molecular target: Gal(b1-3)GlcNAc(b1-2)Man(a1-3)[Gal(b1-3)GlcNAc(b1-2)Man(a1-6)]Man(b1-4)GlcNAc(b1-4)GlcNAc
# Outline: (§1)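 The Consortium for Functional Glycomics database supplied 3228 glycan arrays, of which those lacking an available protein sequence were dropped. The binding signal, a within-array Z-score, was averaged across arrays of the same protein sequence and across linkers. Negative scores can be read as non-binding.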
# [2] = molecular target: Gal(b1-3)GlcNAc(b1-2)Man(a1-3)[Gal(b1-3)GlcNAc(b1-2)Man(a1-6)]Man(b1-4)GlcNAc(b1-4)[Fuc(a1-6)]GlcNAc
# Outline: as §1
# [3] = molecular target: Gal(b1-3)GlcNAc(b1-2)Man(a1-3)[GlcNAc(b1-4)][Gal(b1-3)GlcNAc(b1-2)Man(a1-6)]Man(b1-4)GlcNAc(b1-4)GlcNAc
# Outline: as §1
# [4] = molecular target: Gal(b1-3)GlcNAc(b1-2)[Gal(b1-3)GlcNAc(b1-6)]Man(a1-6)[Gal(b1-3)GlcNAc(b1-2)Man(a1-3)]Man(b1-4)GlcNAc(b1-4)GlcNAc
# Outline: as §1
# [5] = molecular target: Gal(b1-3)GlcNAc(b1-3)Gal(b1-3)GlcNAc
# Outline: as §1
# [6] = molecular target: Gal(b1-3)GlcNAc(b1-3)Gal(b1-4)Glc
# Outline: as §1
# [7] = molecular target: Gal(b1-3)GlcNAc(b1-3)Gal(b1-4)GlcNAc
# Outline: as §1
# [8] = molecular target: Gal(b1-3)GlcNAc(b1-3)Gal(b1-4)GlcNAc(b1-2)Man(a1-3)[Gal(b1-3)GlcNAc(b1-3)Gal(b1-4)GlcNAc(b1-2)Man(a1-6)]Man(b1-4)GlcNAc(b1-4)GlcNAc
# Outline: as §1
# [9] = molecular target: Gal(b1-3)GlcNAc(b1-3)Gal(b1-4)GlcNAc(b1-2)[Gal(b1-3)GlcNAc(b1-3)Gal(b1-4)GlcNAc(b1-6)]Man(a1-6)[Gal(b1-3)GlcNAc(b1-3)Gal(b1-4)GlcNAc(b1-2)Man(a1-3)]Man(b1-4)GlcNAc(b1-4)[Fuc(a1-6)]GlcNAc
# Outline: as §1
# [10] = molecular target: Gal(b1-3)GlcNAc(b1-3)Gal(b1-4)GlcNAc(b1-3)Gal(b1-4)GlcNAc(b1-2)[Gal(b1-3)GlcNAc(b1-3)Gal(b1-4)GlcNAc(b1-3)Gal(b1-4)GlcNAc(b1-6)]Man(a1-6)[Gal(b1-3)GlcNAc(b1-3)Gal(b1-4)GlcNAc(b1-3)Gal(b1-4)GlcNAc(b1-2)Man(a1-3)]Man(b1-4)GlcNAc(b1-4)[Fuc(a1-6)]GlcNAc
# Outline: as §1
# [11] = molecular target: Gal(b1-3)GlcNAc(b1-3)Gal(b1-4)GlcNAc(b1-6)[Gal(b1-3)GlcNAc(b1-3)]Gal(b1-4)Glc
# Outline: as §1
# [12] = molecular target: Gal(b1-3)GlcNAc(b1-3)Gal(b1-4)[Fuc(a1-3)]GlcNAc
# Outline: as §1
# [13] = molecular target: Gal(b1-3)GlcNAc(b1-3)Gal(b1-4)[Fuc(a1-3)]GlcNAc(b1-6)[Gal(b1-3)GlcNAc(b1-3)]Gal(b1-4)Glc
# Outline: as §1
# [14] = molecular target: Gal(b1-3)GlcNAc(b1-3)GalNAc
# Outline: as §1
# [15] = molecular target: Gal(b1-3)GlcNAc(b1-6)Gal(b1-4)GlcNAc
# Outline: as §1
# [16] = molecular target: Gal(b1-3)GlcNAc(b1-6)GalNAc
# Outline: as §1
# [17] = molecular target: Gal(b1-3)GlcNAc(b1-6)[Gal(b1-3)]GalNAc
# Outline: as §1
# [18] = molecular target: Gal(b1-3)GlcNAc6S
# Outline: as §1
# [19] = molecular target: Gal(b1-3)[Fuc(a1-4)]GlcNAc
# Outline: as §1
# [20] = molecular target: Gal(b1-3)[Fuc(a1-4)]GlcNAc(b1-2)Man
# Outline: as §1
# [21] = molecular target: Gal(b1-3)[Fuc(a1-4)]GlcNAc(b1-2)Man(a1-3)[Gal(b1-3)[Fuc(a1-4)]GlcNAc(b1-2)Man(a1-6)]Man(b1-4)GlcNAc(b1-4)[Fuc(a1-6)]GlcNAc
# Outline: as §1
# [22] = molecular target: Gal(b1-3)[Fuc(a1-4)]GlcNAc(b1-3)Gal(b1-3)[Fuc(a1-4)]GlcNAc
# Outline: as §1
# [23] = molecular target: Gal(b1-3)[Fuc(a1-4)]GlcNAc(b1-3)Gal(b1-4)[Fuc(a1-3)]GlcNAc
# Outline: as §1
# [24] = molecular target: Gal(b1-3)[Fuc(a1-4)]GlcNAc(b1-6)GalNAc
# Outline: as §1
# [25] = molecular target: Gal(b1-3)[GlcNAc(b1-6)]GalNAc
# Outline: as §1
# [26] = molecular target: Gal(b1-3)[Neu5Ac(a2-6)]GalNAc
# Outline: as §1
# [27] = molecular target: Gal(b1-3)[Neu5Ac(a2-6)]GlcNAc(b1-4)Gal(b1-4)Glc
# Outline: as §1
# [28] = molecular target: Gal(b1-3)[Neu5Ac(b2-6)]GalNAc
# Outline: as §1
# [29] = molecular target: Gal(b1-4)Gal
# Outline: as §1
# [30] = molecular target: Gal(b1-4)GalNAc(a1-3)[Fuc(a1-2)]Gal(b1-4)GlcNAc
# Outline: as §1
binder,measurement,setting,value
B1,glycan array binding signal (z-score),[1],0.473
same,glycan array binding signal (z-score),[2],0.191
same,glycan array binding signal (z-score),[3],1.09
same,glycan array binding signal (z-score),[4],-0.012
same,glycan array binding signal (z-score),[5],0.187
same,glycan array binding signal (z-score),[6],-0.047
same,glycan array binding signal (z-score),[7],-0.022
same,glycan array binding signal (z-score),[8],-0.161
same,glycan array binding signal (z-score),[9],0.042
same,glycan array binding signal (z-score),[10],0.433
same,glycan array binding signal (z-score),[11],0.789
same,glycan array binding signal (z-score),[12],-0.109
same,glycan array binding signal (z-score),[13],0.52
same,glycan array binding signal (z-score),[14],-0.132
same,glycan array binding signal (z-score),[15],7.88
same,glycan array binding signal (z-score),[16],-0.168
same,glycan array binding signal (z-score),[17],0.964
same,glycan array binding signal (z-score),[18],1.37
same,glycan array binding signal (z-score),[19],-0.197
same,glycan array binding signal (z-score),[20],-0.171
same,glycan array binding signal (z-score),[21],-0.175
same,glycan array binding signal (z-score),[22],-0.191
same,glycan array binding signal (z-score),[23],-0.207
same,glycan array binding signal (z-score),[24],-0.137
same,glycan array binding signal (z-score),[25],0.982
same,glycan array binding signal (z-score),[26],0.744
same,glycan array binding signal (z-score),[27],-0.133
same,glycan array binding signal (z-score),[28],-0.062
same,glycan array binding signal (z-score),[29],-0.16
same,glycan array binding signal (z-score),[30],0.533
